Measurements: PubChem BioAssay AID1240 (Sanford-Burnham Center for Chemical Genomics, 2008)
The whole screen tested about 50,000 compounds, of which about 800 (1.6%) showed an effect of 50% or more. The list shows a part of the results.

Biological target: Bcl-2-like protein 10 (Homo sapiens) (UniProt Q9HD36)
Experiment: Phenotype converters, Bcl-B/TR3 peptide binding displacement, primary biochemical FP (AID 1240);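 note: 0% = Bcl-B with tracer peptide and DMSO and 100% = tracer peptide lacking Bcl-B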
Settings: GST-Bcl-B / FITC-TR3 peptide fluorescence polarization; stronger effect = higher value; compound at 3.75 mg/L

Sequence of UniProt Q9HD36 (Q9HD36 whole entry, looked up): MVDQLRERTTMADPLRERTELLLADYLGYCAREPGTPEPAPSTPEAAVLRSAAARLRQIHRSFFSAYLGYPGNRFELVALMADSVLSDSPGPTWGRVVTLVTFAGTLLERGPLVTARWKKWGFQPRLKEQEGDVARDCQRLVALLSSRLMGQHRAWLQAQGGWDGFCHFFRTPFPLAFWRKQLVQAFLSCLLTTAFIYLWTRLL

First: O=c1c(C=NCCCO)c(-c2ccccc2)[nH]n1-c1nc2ccccc2s1
Second: CC(=O)C1=C(c2ccccc2)S/C(=C2/C(=S)C(C)(C)Nc3ccccc32)S1
The displacement of the first is lower: -4.6% for the first, 7.4% for the second.

Going from `CCOc1cccc(N2C(=O)CC(SC(=NCc3ccc(OC)cc3)Nc3ccccc3)C2=O)c1` (centres undefined) to `COc1ccc(C(NC(=O)Cc2ccccc2)NC(=O)Cc2ccccc2)cc1`, the displacement rises from -6.4% to -1.7%.

Compared with `COc1cc(/C=C2/SC(=S)N(CC(=O)O)C2=O)cc(Cl)c1O`, `COc1cccc(/C=C2\SC(=S)N(c3cccc(F)c3)C2=O)c1O` is higher in displacement: -66.1% for the first, -13.5% for the second.

Going from `Cc1cc(OCC(=O)Nc2ccc(N3CCOCC3)cc2)cc(C)c1Cl` to `COc1ccc(N2C(=O)C(Cl)=C(Nc3ccc(C)c(Cl)c3)C2=O)cc1`, the displacement falls from 14.7% to 10.1%.

Going from `Cc1cccc(C(=O)NNC2=CC(=O)CC(C)(C)C2)c1O` to `CC(=O)Nc1ccc(C2Nc3cc(C)c(C)cc3NC3=C2C(=O)CC(C)(C)C3)cc1` (centres undefined), the displacement falls from 37.5% to -3.9%.

Compared with `CCN=C1SC(CC(=O)Nc2ccccc2C#N)C(=O)N1CC` (centres undefined), `Cc1ccc(CNC(=O)C(=O)Nc2ccccc2F)cc1` is higher in displacement: 1.1% for the first, 3.4% for the second.

Going from `CCCOc1ccc(C2Nc3cccc4cccc(c34)N2)cc1` to `NC(=O)c1cccc(N=Cc2c(O)ccc3ccccc23)c1`, the displacement falls from 10.6% to -0.3%.

Compared with `Cc1ccc(Nc2nc(-c3ccc(S(=O)(=O)N4CCCCC4)cc3)cs2)cc1Cl`, `N#C/C(=C\c1ccc(-c2ccc([N+](=O)[O-])cc2)o1)C(=O)N1CCCCC1` is higher in displacement: -3.5% for the first, 3.2% for the second.

Compared with `CC1(C)NC(=O)N(CC(O)CN(c2ccccc2)S(=O)(=O)c2ccccc2)C1=O` (centres undefined), `O=C(O)CC(NC(=O)c1ccccc1)c1ccc(Cl)cc1` (centres undefined) is higher in displacement: -30.7% for the first, 11.7% for the second.

First: Cc1cc(/C=N/NC(=O)c2cccnc2)c(C)n1-c1ccccc1
Second: COc1ccc(-c2nn(-c3ccccc3)cc2/C=C/C(=O)c2ccccc2)cc1Br
The displacement of the first is lower: -22.4% for the first, 9.3% for the second.

Going from `COC(=O)c1cc(NC(=O)c2ccccc2OC)cc(C(=O)OC)c1` to `COC(=O)c1cc(S(=O)(=O)Nc2ccc(NC(=O)c3ccccc3)cc2)ccc1Cl`, the displacement falls from -5.9% to -17.9%.

Going from `COc1cc(/C=C(\C#N)c2nc(-c3ccc(-c4ccccc4)cc3)cs2)ccc1O` to `O=c1c(-c2ccccc2)coc2cc(OCc3ccccc3Cl)ccc12`, the displacement falls from 112% to 20.7%.

Going from `COc1ccccc1N1CCN(C(=O)c2ccccc2Oc2ccccc2)CC1` to `COC(=O)c1ccccc1NC(=O)/C=C/c1ccccc1Cl`, the displacement rises from 10% to 16.8%.

Going from `Brc1ccccc1OCCCn1ccnc1` to `C=C(Br)Cn1c(CCC)nc2ccccc21`, the displacement falls from 5.8% to -5.8%.

Compared with `COc1ccc(CCNC2CC(=O)N(c3ccc(I)cc3)C2=O)cc1OC` (centres undefined), `COc1ccc(NC(=O)c2cc3nc(-c4ccc(Cl)cc4)cc(C(F)(F)F)n3n2)cc1OC` is lower in displacement: 2.3% for the first, -4.6% for the second.

First: CSc1ccc(/C=c2\sc3nc4ccccc4n3c2=O)cc1
Second: COC(=O)c1cc(-c2ccc(C)s2)nc2ccccc12
The displacement of the first is higher: 7.3% for the first, 0.7% for the second.

Compared with `CCOC(=O)c1c(NC(=O)COc2cccc(C)c2C)sc2c1CCC2`, `COCCOC(=O)C1=C(C)NC2=C(C(=O)CCC2)C1c1ccccc1I` (centres undefined) is higher in displacement: -5.3% for the first, 3.2% for the second.

Going from `Cc1ccccc1OCCNc1cc(N2CCCC2)ccc1[N+](=O)[O-]` to `Cc1ccc(NC(=O)c2cc(C(=O)O)ccc2C(=O)O)c([N+](=O)[O-])c1`, the displacement rises from -4.9% to 11.2%.

Going from `Cc1cc(C)nc(SCC(=O)Nc2ccc(C)c(NC(=O)CSc3nc(C)cc(C)n3)c2)n1` to `CCOC(=O)C(=O)Nc1ccc(S(=O)(=O)Nc2nccc(C)n2)cc1`, the displacement rises from 23.5% to 27.4%.

Going from `COc1cc(CN2CCN(C(=O)c3cc(OC)c(OC)c(OC)c3)CC2)c([N+](=O)[O-])cc1OC` to `COC(=O)c1c(C)oc2cc(Br)c(OCC(=O)OC(C)(C)C)cc12`, the displacement rises from 7.3% to 8.5%.

Going from `CC(=O)Nc1ccc(-n2c(C)cc(/C=C3\C(=O)NC(=O)N(c4ccc(C)cc4)C3=O)c2C)cc1` to `Cc1ccc(OCCOc2ccc(Cl)cc2/C=C2/SC(=S)N(C)C2=O)cc1`, the displacement rises from -10.4% to 7.6%.

First: Oc1c(N=Nc2cccc(Br)c2)sc2ccccc12
Second: O=C1/C(=C/c2ccc(O)c(Br)c2)Sc2ccccc21
The displacement of the first is higher: 0.9% for the first, -53.2% for the second.

First: Cc1cc(Cl)ccc1OCCOCCN1CCC(C)CC1
Second: COc1ccccc1C1NC(=S)NC(C)=C1C(=O)Nc1cccc(Cl)c1 (centres undefined)
The displacement of the first is lower: -8.9% for the first, 5.9% for the second.

Going from `Cc1cc(C)cc(NC(=O)C(=O)NCc2ccccn2)c1` to `Nc1ccc(Cl)c(C(=O)Nc2ccccc2C(=O)O)c1`, the displacement rises from -3.5% to 18.1%.

First: C/C(=N\NC(=O)CCc1c(C)n[nH]c1C)c1ccc(N)cc1
Second: COc1ccc2[nH]c(C)c(C/C=C(/C)Cl)c(=S)c2c1
The displacement of the first is lower: -4% for the first, 7.3% for the second.

Going from `Fc1ccc(-c2cn3ccccc3n2)cc1` to `O=C(OCC1CCS(=O)(=O)C1)c1ccccc1` (centres undefined), the displacement falls from 3.2% to -7.2%.

First: Cc1c(C)[n+](=O)c2cc(Cl)c(Cl)cc2n1[O-]
Second: COc1cc(/C=N/n2c(SC)nnc(C(C)(C)C)c2=O)ccc1O
The displacement of the first is lower: -4.5% for the first, 0.1% for the second.
